# Data: PubChem BioAssay AID2546 (National Center for Advancing Translational Sciences (NCATS), 2010)
# Hit rate of the full screen: of about 310,000 compounds, about 11,000 (3.5%) were called active. The shares of active, inactive and inconclusive entries below differ from those in the screen. Calls follow the shape of the dose curve; as a rule, active = well fitted inhibition curve with a large enough effect; inconclusive = small, poorly fitted or top-dose-only effect, or effect the other way; inactive = flat fitted curve, though single readings scatter. No potency is given beside an inconclusive call; the fits are too rough.
# Experiment: VP16 counterscreen qHTS for inhibitors of ROR gamma transcriptional activity;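 also: Gal4-VP16 expression switched on by copper sulfate through the metallothionein promoter; nearly all actives have a fitted effect of over 50% in size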
# Conditions: Drosophila S2 Gal4-VP16 UAS-luciferase, luminescence, 20 h; activity, negative = inhibition: at 53.6 µM (top of the series)
# % is scaled to controls: 0 for no effect and ±100 for the full control effect; potency is read from the fitted curve at half-maximal effect; tags tell the direction and shape of the fitted curve.
SMILES,Potency,"activity, negative = inhibition"
COc1ccc(CCNCC2C(Oc3ccc(Cl)cc3)C(=O)N2c2ccccc2C)cc1OC (configuration not stated),"inconclusive [inhibitor, single point]",–
COc1ccc(OC)c2[nH]c(=O)c(CCNC(=O)c3ccc4c(c3)OCO4)cc12,"inconclusive [inhibitor, single point]",–
COc1ccc(CCNC(=O)c2ccc(CNS(=O)(=O)c3ccccc3)cc2)cc1OC,–,inactive: -5.73%
Nc1nc(NCCc2ccc(O)cc2)nc2nc(-c3ccco3)nn12,–,inactive: -1.63%
CC(C)c1nnc(NC(=O)CC(=O)Nc2ccccc2C(=O)O)s1,"inconclusive [inhibitor, partial curve]",–
Cc1cccc(NC(=O)CN2C(=S)NC(C)(C)CC2C)c1 (configuration not stated),"inconclusive [inhibitor, single point]",–
Cc1ccc(-n2[nH]c(C)c(/C=N/N3C(=O)c4cccc5cccc(c45)C3=O)c2=O)cc1,active: 12.6 µM,–
O=C(Nc1ccc(Cl)cc1)Nc1ccc(N2CCCC2)c(S(=O)(=O)Nc2ccccc2Cl)c1,"inconclusive [inhibitor, single point]",–
COc1ccc(C(CNC(=O)c2cccc(N(C)C)c2)N2CCCC2)cc1 (configuration not stated),–,inactive: 9.36%
COc1ccc2c(c1)nc(SCC(=O)c1cccs1)n2C,–,inactive: -29.5%
CCCCCCCCOc1ccc(C2CC(=O)NC2=O)cc1 (configuration not stated),–,inactive: 26.9%
C/C(=N/NC(=O)c1ccco1)c1cccc(NC(=O)c2ccc(C)s2)c1,–,inactive: 6.2%
O=C(Cn1nnc(-c2ccccc2-n2cnnn2)n1)c1ccccc1,–,inactive: -10.8%
COCCNC(=O)CSc1nc2ccccc2c(=O)n1CCC(=O)N1CCN(c2ccccc2)CC1,–,inactive: 6.17% [at 10 µM]
CN(O)/C=c1/ccc2c(n1)C(=O)C=CC=2,"inconclusive [inhibitor, single point]",–
CC(CNC(=O)c1cc(COc2ccc3ncccc3c2)on1)c1ccccc1 (configuration not stated),active: 10 µM,–
CN(C)S(=O)(=O)c1cccc(COc2ncnc3c(Cl)cc(Cl)cc23)c1,–,inactive: -8.23%
Cc1cc(Br)ccc1SCC(=O)Nc1cccnc1,"inconclusive [inhibitor, single point]",–
COc1c2ccc(C(=O)NCc3cc(C(F)(F)F)cc(C(F)(F)F)c3)cc2nn1C,"inconclusive [inhibitor, single point]",–
CCOC(=O)c1sc(NC(=S)NC(=O)c2ccccc2)c(C(=O)OCC)c1C,"inconclusive [inhibitor, full curve]",–
O=C(NC(=S)Nc1cnc2ccccc2c1)c1ccccc1,"inconclusive [inhibitor, single point]",–
COc1ccccc1N1CCN(S(=O)(=O)c2ccc3c(c2)NC(=O)C(C)S3)CC1 (configuration not stated),"inconclusive [inhibitor, single point]",–
Cc1cc(OCC(=O)N(C)C2CCCCC2)ccc1Cl,–,inactive: -22.5%
O=C(c1ccccc1)N1CCCC(c2ccc(Cl)cc2)=N1,"inconclusive [inhibitor, single point]",–

SMILES,Potency,"activity, negative = inhibition"
Cc1onc(-c2ccccc2Cl)c1C(=O)N1CCC(Cc2ccccc2)CC1,"inconclusive [inhibitor, single point]",–
O=C(/C=C/c1ccco1)OCc1nnc(-c2ccc(Cl)cc2)o1,–,inactive: -7.35%
CC(CCc1ccc(O)cc1)NCCC(c1ccccc1)c1ccccc1 (configuration not stated),–,inactive: -8.77%
COc1ccc(/C=N/NS(=O)(=O)c2ccccc2)cc1OC(=O)c1ccc(C)cc1,–,inactive: -22.2%
Clc1ccc(CSc2cc3c(nn2)-c2ccccc2CC3)cc1Cl,"inconclusive [activator, single point]",–
O=[N+]([O-])c1ccc(C=Nc2ccc(Cl)cc2Cl)s1,"inconclusive [inhibitor, single point]",–
NC(=O)COC(=O)c1cccc(S(=O)(=O)N2CCCc3ccccc32)c1,–,inactive: -17.5%
O=C1OC(c2cccs2)=N/C1=C\c1ccc(-c2cccc(Cl)c2)o1,–,inactive: -20.5%
C/C=C1\COC(C(=O)NCc2ccccc2)(C(F)(F)F)C=C1C=C(C)C (configuration not stated),"inconclusive [inhibitor, single point]",–
CC(OC(=O)c1cc[n+]([O-])cc1)C(=O)Nc1ccc(Cl)cn1 (configuration not stated),–,inactive: -4.15%
Cc1[nH]c(C(=O)O)c(C)c1C(=O)OC(C)C,–,inactive: -15.1%
c1ccc2sc(N3CCCN(Cc4nc(-c5cnccn5)no4)CC3)nc2c1,–,inactive: -12.3%
Clc1ccc(Cn2ncc3c(NCCN4CCOCC4)ncnc32)cc1,–,inactive: -6.1%
Cc1ccc(C2/C(=C(/O)c3ccc(Br)cc3)C(=O)C(=O)N2Cc2ccco2)o1 (configuration not stated),"inconclusive [inhibitor, single point]",–
COc1cc(/C=N/N2C(=O)C3C4c5ccccc5C(c5ccccc54)C3C2=O)ccc1O (configuration not stated),"inconclusive [inhibitor, full curve]",–
COc1ccccc1C(=O)NCc1n[nH]c(=S)n1Cc1ccccc1,–,inactive: 1.22%
Cc1ccc(CNCc2cc3c(C(C)(C)C)nn(-c4ccccc4)c3[nH]c2=O)cc1,active: 12.6 µM,–
CCOC(=O)c1nn(-c2ccccc2F)c(-c2ccccc2)c1C(=O)c1ccccc1,"inconclusive [inhibitor, single point]",–
O=C(CSc1nnc2c(n1)[nH]c1ccccc12)Nc1cccc(S(=O)(=O)N2CCOCC2)c1,"inconclusive [inhibitor, single point]",–
CC(C)(C)C(=O)NC1(C(F)(F)F)NC(=O)N(Cc2ccccc2)C1=O (configuration not stated),"inconclusive [inhibitor, single point]",–
O=C1c2ccccc2C(=O)C12Cc1ccccc1N1CCN(c3ccccc3)CC12 (configuration not stated),"inconclusive [inhibitor, partial curve]",–
O=C(c1ccc(CS(=O)(=O)c2ccc(Br)cc2)o1)N1CCCCCC1,"inconclusive [inhibitor, single point]",–
COc1cc2c(Cc3c4c5c(cc(OC)c(OC)c5c5c(OC)c(OC)ccc35)CCN4C)c3c4c(cc(OC)c(OC)c4c2cc1OC)CCN3C,–,inactive: 3.88%
O=S(=O)(/N=C(/Nc1ccc(Cl)c(S(=O)(=O)N2CCOCC2)c1)c1ccc(F)cc1)c1ccccc1,–,inactive: -5.51%

SMILES,Potency,"activity, negative = inhibition"
Cc1nnc(C)n1/N=C/c1cc(Br)cc(Br)c1O,"inconclusive [inhibitor, single point]",–
COC(=O)[C@H]1C[C@@H]1[C@H](NS(=O)(=O)c1ccc(-c2ccccc2)cc1)c1ccccc1,–,inactive: 0.766%
COc1ccc(C2=Nn3c(nnc3-c3ccc(OC)cc3)SC2)cc1,inactive,–
COc1ccc(CCc2nc(-c3cccs3)no2)cc1,–,inactive: 6.91%
CC1CC(C)CN(C(=S)Nc2ccc(SC(F)F)cc2)C1 (configuration not stated),active: 11.2 µM,–
COc1ccccc1N1CCN(C(=O)c2noc(C)c2[N+](=O)[O-])CC1,–,inactive: 5.26%
CC1CC(=O)N(C)c2cc([N+](=O)[O-])ccc2N1 (configuration not stated),–,inactive: 5.65%
COC(c1ccccc1)c1nnc(CCC(=O)N(C)Cc2cccc(-n3cccn3)c2)o1 (configuration not stated),"inconclusive [activator, single point]",–
COC(=O)c1ccc(NC(=S)NCCc2ccc(OC)cc2)cc1,"inconclusive [inhibitor, single point]",–
Cc1cc[n+](CC(=O)c2cc3ccccc3oc2=O)cc1,"inconclusive [activator, single point]",–
COc1cc(NC(=O)C/C(C)=N/NC(=O)C(OC)c2ccccc2)c(OC)cc1Cl (configuration not stated),"inconclusive [inhibitor, single point]",–
CCCCNC(=S)N(C)/N=C/c1c(C)[nH]c2ccccc12,"inconclusive [inhibitor, single point]",–
Cc1cc(=O)oc2cc(NC(=S)NNC(=O)c3c(Cl)cnn3C)ccc12,"inconclusive [inhibitor, single point]",–
Cc1ccc(-n2c(-c3ccccc3)c[n+]3c2CCc2ccccc2-3)c(C)c1,active: 7.08 µM,–
Nc1cccc(-c2nc3ccc(N)cc3s2)c1,"inconclusive [inhibitor, partial curve, poor fit]",–
S=C(NCC1CCCO1)Nc1cccc2ccccc12 (configuration not stated),"inconclusive [inhibitor, single point]",–
CCOC(=O)c1ccc(NC(=O)c2nc[nH]c2C(=O)N[C@@H](CC(C)C)C(=O)OCc2ccccc2)cc1,"inconclusive [inhibitor, full curve]",–
COCCNc1nc(-c2cc(C)c(C)cc2C)cs1,"inconclusive [inhibitor, single point]",–
O=C(Nc1ccccc1F)N(Cc1ccc(F)cc1)Cc1nc2ccccc2c(=O)[nH]1,"inconclusive [inhibitor, single point]",–
COC(=O)[C@@]1(Cc2ccc(OC)cc2)[C@H]2c3cc(C(=O)N4CCCC4)n(Cc4cc(F)cc5c4OCOC5)c3C[C@H]2CN1C(=O)c1ccccc1,"inconclusive [inhibitor, partial curve, poor fit]",–
Cc1cc(O)c(C(=O)Nc2cccc(Cl)c2)c(=O)n1C,"inconclusive [activator, single point]",–
O=C(Nc1nc2ccccc2s1)C1CCN(S(=O)(=O)c2cc([N+](=O)[O-])ccc2Cl)CC1,"inconclusive [inhibitor, single point]",–
COC(=O)c1ccc(Oc2ccc(S(=O)(=O)N3CCCCC3)cc2N)cc1,"inconclusive [inhibitor, single point]",–
O=C(COc1ccc(C(=O)c2ccccc2)cc1)Nc1cccnc1,"inconclusive [inhibitor, full curve, poor fit]",–
